The source of these data is publication PMC4336329 (PLoS ONE, 2015).

About 14,000 (4.5%) of roughly 310,000 compounds showed an effect of 50% or more. Effects have a minus sign here. The list shows a part of the results.
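Also: peak tail current of the secondary pulse compared with the same well before compound.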

human ether-à-go-go-related gene (hERG) potassium channel, sequence (Q12809 whole entry, looked up): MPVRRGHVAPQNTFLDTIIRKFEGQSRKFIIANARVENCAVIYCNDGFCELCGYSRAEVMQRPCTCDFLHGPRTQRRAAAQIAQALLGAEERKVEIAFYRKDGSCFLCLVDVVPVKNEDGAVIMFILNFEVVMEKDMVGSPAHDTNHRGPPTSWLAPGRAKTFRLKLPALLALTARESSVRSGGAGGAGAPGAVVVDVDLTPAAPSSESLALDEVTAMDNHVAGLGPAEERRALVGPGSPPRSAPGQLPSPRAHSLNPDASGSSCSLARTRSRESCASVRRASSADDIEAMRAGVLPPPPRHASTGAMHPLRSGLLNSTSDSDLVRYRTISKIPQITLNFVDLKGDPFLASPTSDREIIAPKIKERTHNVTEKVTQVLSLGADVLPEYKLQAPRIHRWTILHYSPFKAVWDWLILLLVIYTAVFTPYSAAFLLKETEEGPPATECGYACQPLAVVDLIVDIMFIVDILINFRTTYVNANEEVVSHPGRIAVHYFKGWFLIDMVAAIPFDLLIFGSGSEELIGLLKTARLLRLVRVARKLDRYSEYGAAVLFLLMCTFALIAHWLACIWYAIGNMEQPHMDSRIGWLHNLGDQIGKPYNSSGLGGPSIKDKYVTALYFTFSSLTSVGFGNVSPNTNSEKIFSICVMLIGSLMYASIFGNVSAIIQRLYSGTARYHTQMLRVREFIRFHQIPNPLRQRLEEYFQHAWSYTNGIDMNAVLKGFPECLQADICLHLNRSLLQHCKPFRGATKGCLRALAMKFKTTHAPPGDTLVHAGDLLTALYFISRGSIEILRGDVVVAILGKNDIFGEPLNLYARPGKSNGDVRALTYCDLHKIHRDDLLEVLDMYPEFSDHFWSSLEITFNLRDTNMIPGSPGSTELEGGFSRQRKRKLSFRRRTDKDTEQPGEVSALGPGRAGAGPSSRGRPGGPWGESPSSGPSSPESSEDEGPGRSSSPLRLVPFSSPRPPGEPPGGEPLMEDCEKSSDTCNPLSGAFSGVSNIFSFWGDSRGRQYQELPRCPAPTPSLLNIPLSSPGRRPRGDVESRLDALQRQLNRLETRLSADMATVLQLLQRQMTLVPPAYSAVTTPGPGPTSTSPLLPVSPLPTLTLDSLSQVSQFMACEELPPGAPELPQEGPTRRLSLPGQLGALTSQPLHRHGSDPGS

This assay concerns the target human ether-à-go-go-related gene (hERG) potassium channel (human, UniProt Q12809). The assay can be described thus: primary screen, population patch clamp on CHO cells stably expressing hERG.
As for `Cc1ccc2c(c1)N(CC(=O)N1CCOCC1)C(=O)CO2`, the “hERG current change (%, negative = inhibition) at 10uM” value is given as 4.9%.

`COc1cc(/C=C2/C(=O)NN(c3ccc(F)cc3)C2=O)cc(Cl)c1O`: the “hERG current change (%, negative = inhibition) at 10uM” value worked out at 16.4%. For `O=C(CCCOc1ccc(Br)cc1)Nc1ccc(S(=O)(=O)N2CCOCC2)cc1` the value was 2.38%; for `Cc1ccc(C(=O)C(C)OC(=O)CNC(=O)c2ccc(Br)o2)cc1` (stereo not drawn), -44.6%.

As to `CC(NC(=O)c1ccncc1)c1ccc(Cl)cc1Cl` (stereo not drawn), the “hERG current change (%, negative = inhibition) at 10uM” value is given as -9.73%. Regarding `CCOc1c(Cl)cc(CNCCc2c[nH]c3ccccc23)cc1OC.Cl`, the “hERG current change (%, negative = inhibition) at 10uM” value is on record as -24.2%. To `Cc1cc(NC(=O)CSc2nc(-c3ccccc3Cl)nc3c2c(=O)n(C)c(=O)n3C)no1` belongs 9.62%; to `COC(=O)Cc1ccc(NC(=O)c2ccc3c(c2)C(=O)N(Cc2ccco2)C3=O)cc1`, -2.43%.

In the case of `CCN1CCN(S(=O)(=O)c2ccc3c(c2)OCCO3)CC1`, the “hERG current change (%, negative = inhibition) at 10uM” value is reported as 10.7%. To `C[NH+](C)CCCN1c2ccccc2Sc2ccc(Cl)cc21.[Cl-]` belongs -65.3%. For the compound `O=C(Nc1ccc(N2CCN(Cc3ccccc3)CC2)cc1)c1ncn[nH]1`, the “hERG current change (%, negative = inhibition) at 10uM” value was -5.05%. For the compound `Cc1ccc(OCC(=O)Nc2ccc(S(=O)(=O)Nc3ccccn3)cc2)cc1C`, the “hERG current change (%, negative = inhibition) at 10uM” value stood at 24.4%.

For the compound `COC(CNC(=O)C1CCCN(S(=O)(=O)c2c(C)noc2/C=C/c2cccs2)C1)OC` (stereo not drawn), the “hERG current change (%, negative = inhibition) at 10uM” value is recorded as -23%.

As to `CCCc1cc(=O)n2[nH]c(-c3cccc(Br)c3)cc2n1`, the “hERG current change (%, negative = inhibition) at 10uM” value was found to be 4.16%. To `COc1ccccc1C(=O)Nc1ccc(OC(C)C(=O)N2CCOCC2)cc1` (stereo not drawn) belongs 1.1%; to `COc1cc(/C=N/NC(=O)c2ccncc2)ccc1OCC(=O)Nc1ccc(C)c(C)c1`, -10.7%.

On to `O=C(NN=C1CCCC1)c1cc(-c2ccc(F)cc2)nc2ccccc12`, for which the “hERG current change (%, negative = inhibition) at 10uM” value is 12.9%. To `Cc1cccc(N2CCN(CC(=O)Nc3ccccc3[N+](=O)[O-])CC2)c1C` belongs -0.256%. For `CCn1c(SCC(=O)c2ccccc2)nnc1-c1ccoc1C` the value was 2.98%; for `COc1ccc(Nc2nc3c(c(=O)n(C)c(=O)n3C)n2CCO)cc1`, 4.72%. To `CSc1nncc(-c2ccc(F)cc2)n1` belongs -4.26%; to `C/C(=N\NC(=O)Cc1cccn1C)c1cccs1`, 30.2%. For the compound `O=C(Nc1cccc(Cl)c1)c1ccc2ncsc2c1`, the “hERG current change (%, negative = inhibition) at 10uM” value is recorded as -12.6%.

For the compound `COc1cccc(CNC(=O)CCCn2ccc3cc(S(=O)(=O)N4CCCC4)ccc32)c1`, the “hERG current change (%, negative = inhibition) at 10uM” value is -27.8%.

Take `CC(=O)c1sc(NC(=O)COc2c(C)cc(Cl)cc2C)nc1C`: the “hERG current change (%, negative = inhibition) at 10uM” value is listed as 33.3%. On to `Cc1ccc(N=Cc2ccc(O)cc2O)cc1F`, for which the “hERG current change (%, negative = inhibition) at 10uM” value stood at 20.6%. As to `C=CCn1c(C)cc(C(=O)CN2C(=O)c3ccccc3C2=O)c1C`, the “hERG current change (%, negative = inhibition) at 10uM” value is on record as 6.81%. Regarding `Cc1cc(C)c(S(=O)(=O)Nc2ccc(N(C)C)cc2)c(C)c1-n1cnnn1`, the “hERG current change (%, negative = inhibition) at 10uM” value turned out to be 11.2%. As for `Cc1cc(=O)oc2cc(OCC(=O)NC(Cc3c[nH]c4ccc(O)cc34)C(=O)O)c(Cl)cc12` (stereo not drawn), the “hERG current change (%, negative = inhibition) at 10uM” value is recorded as -3.5%. To `CCNc1nc(NC(C)C)nc(N(C#N)CCOc2ccccc2)n1` belongs -26%; to `CC(=O)Nc1ccc(S(=O)(=O)NC(CC(=O)NCCC2=CCCCC2)C(C)C)cc1` (stereo not drawn), 5.52%. For `O=C(N/N=C/c1ccc[nH]1)c1ccccc1[N+](=O)[O-]` the value was 19.9%. To `COC(=O)CSc1[nH]c2ccc(F)cc2c1[N+](=O)[O-]` belongs 18.5%; to `COC(=O)c1ccc(CSc2nc3c(c(=O)n2-c2ccccc2)SCC3)o1`, -16.7%; to `Cc1ccc(-c2cc(C(F)F)nc(NCC3CCCO3)n2)cc1` (stereo not drawn), -12%.

With `Cc1nc2c(-c3ccc(F)cc3)c(C)nn2c(N2CCOCC2)c1C`, the “hERG current change (%, negative = inhibition) at 10uM” value is recorded as 6.11%. For `COc1ccc(N2C(=O)S[C@@H]3CS(=O)(=O)C[C@@H]32)cc1`, the “hERG current change (%, negative = inhibition) at 10uM” value is listed as 3.8%.

For `Cc1ccc(S(=O)(=O)NC2=NCN(C(C)C)CN2)cc1`, the “hERG current change (%, negative = inhibition) at 10uM” value is on record as 14.5%. Consider `NC(=O)c1ccc(N2CCCCC2)c(N2C(=O)C3CC=CCC3C2=O)c1` (stereo not drawn), for which the “hERG current change (%, negative = inhibition) at 10uM” value is on record as 15.6%. To `O=C(O)COc1ccc(C(NC(=O)c2c(F)cccc2F)NC(=O)c2c(F)cccc2F)cc1` belongs 18.7%; to `CCN(c1ccccc1)S(=O)(=O)c1ccc(NC(=S)NC(=O)c2cccs2)cc1`, 10.6%. For `CC(C(=O)NC1=NCCS1)(C(F)(F)F)C(F)(F)F` the value was -3.47%; for `O=C(NN1CCOCC1)c1ccc(Cl)s1`, -3.04%. For `N#Cc1cn(N2CCCCC2)c(=O)[nH]c1=O` the value was 14%; for `Nc1nc(SCC(=O)N2CCN(c3ccc(F)cc3)CC2)n[nH]1`, 9.18%.
